# Values joined by “and” are separate entries in the source; they are usually repeats but may differ in a detail not shown here. Equal entries are not always repeated. Hit rate of the full screen: of about 270,000 compounds, about 5,800 (2.1%) were called active. Inconclusive results, whose numbers are uncertain, are shown with a selection of clear calls. The call rests on the fitted dose curve; in most records, active means well fitted inhibition curve with a large enough effect; inconclusive means small, poorly fitted or top-dose-only effect; inactive means flat fitted curve, though single readings scatter. Where the call is inconclusive, the potency comes from a doubtful curve fit.
# Target: Microtubule-associated protein tau (Homo sapiens) (UniProt P10636)
# Assay: qHTS for Inhibitors of Tau Fibril Formation, Thioflavin T Binding; further: nearly all actives have a fitted effect of over 55% in size
# Settings: recombinant tau K18 P301L, heparin-induced fibrillization, ThT fluorescence; series mostly up to 57.4 µM; activity, negative = inhibition: at the top concentration
# How it was run: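 ThT emission at 510 nm, taken 1 hr after adding 30 uM dye, quantifies aggregates formed when 20 uM heparin acts on human tau K18 P301L for 6 hr at 37 C.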
# On the % scale 0 is the no-effect control and ±100 the full control effect; potency means the concentration at half of the fitted maximal effect; tags describe the fitted curve by direction and shape.
# UniProt P10636, sequence (P10636 whole entry, looked up): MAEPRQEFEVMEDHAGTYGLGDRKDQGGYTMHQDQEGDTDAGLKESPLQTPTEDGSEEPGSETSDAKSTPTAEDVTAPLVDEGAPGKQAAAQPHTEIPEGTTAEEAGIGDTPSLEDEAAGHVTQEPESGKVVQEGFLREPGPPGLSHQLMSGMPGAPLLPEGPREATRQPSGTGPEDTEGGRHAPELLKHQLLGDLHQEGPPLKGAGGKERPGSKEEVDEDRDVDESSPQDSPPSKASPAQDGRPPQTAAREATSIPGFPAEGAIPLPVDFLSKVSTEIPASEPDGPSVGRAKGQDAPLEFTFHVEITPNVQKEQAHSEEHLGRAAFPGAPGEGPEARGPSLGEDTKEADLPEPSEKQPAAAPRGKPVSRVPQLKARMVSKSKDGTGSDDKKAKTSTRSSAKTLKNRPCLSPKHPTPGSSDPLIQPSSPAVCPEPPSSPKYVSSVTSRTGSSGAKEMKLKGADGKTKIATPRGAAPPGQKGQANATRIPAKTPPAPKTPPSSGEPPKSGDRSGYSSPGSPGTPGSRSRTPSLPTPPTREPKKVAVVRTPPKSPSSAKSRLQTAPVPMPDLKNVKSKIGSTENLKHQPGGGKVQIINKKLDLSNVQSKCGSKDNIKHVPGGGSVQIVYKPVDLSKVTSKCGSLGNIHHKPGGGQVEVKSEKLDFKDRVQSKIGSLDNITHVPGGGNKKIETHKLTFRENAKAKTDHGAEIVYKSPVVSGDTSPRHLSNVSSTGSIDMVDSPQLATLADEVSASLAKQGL
SMILES,"activity, negative = inhibition",Potency
O=C(CSC1=Nc2ccccc2N=C(c2ccc(F)cc2)C1)NCc1ccc(Cl)cc1,inactive: -7.43%,
Cc1cc(S(=O)(=O)NCC(c2ccc(N(C)C)cc2)N2CCOCC2)ccc1F (stereo unspecified),,"inconclusive: 31.6 µM [inhibitor, single point]"
CCN(CC)S(=O)(=O)c1cccc(-c2nnc(-c3ccc(C)cc3)o2)c1,inactive: 3.65%,
CCCCN1C(C)=CC(=C2C(=O)c3ccccc3C2=O)C=C1C,,"inconclusive: 11.2 µM [inhibitor, partial curve]"
O=C1CCC=C1C(O)c1ccc(Cl)cc1 (stereo unspecified),inactive: 5.31%,
O=C(NCc1ccco1)C(=S)N1CCCCC1,inactive: -7.27%,
O=C(CSc1nnc(-c2ccco2)c(-c2ccco2)n1)Nc1ccccc1,,active: 7.94 µM
COc1ccc(CNC(=O)c2c(O)c3cccc4c3n(c2=O)CCC4)cc1OC,inactive: 12.6%,
COc1ccc(-c2nc3sc(CCNS(=O)(=O)c4ccc(F)c(C)c4)c(C)n3n2)cc1,inactive: -9.65%,
COc1ccc(C(=O)/C=C/Nc2ccc(C)cn2)cc1OC,,"inconclusive: 2 µM [inhibitor, full curve]"
COC(=O)c1[nH]c(C)c(/C(O)=C2\C(=O)C(=O)N(CCCN3CCOCC3)C2c2ccccn2)c1C (stereo unspecified),,"inconclusive: 25.1 µM [inhibitor, single point]"
CCOC(=O)c1c(CSc2ccc(C)cc2)oc2ccc(O)cc12,,"inconclusive: 35.5 µM [inhibitor, partial curve]"
Cc1ccc(OCc2nnc(SCC(=O)Nc3ccc4c(c3)OCO4)n2C)cc1,,"inconclusive: 17.8 µM [inhibitor, partial curve]"
N#Cc1c(Nc2cccc(F)c2)sc(C(=O)c2ccc(Cl)cc2)c1N,,active: 28.2 µM
Clc1ccc(CNc2cc(-c3ccccc3)nc3nncn23)cc1,,"inconclusive: 17.8 µM [inhibitor, single point]"
CCCNC(=O)Cn1nc(-c2ccc(C)c(C)c2)c2cnc3ccc(F)cc3c21,,"inconclusive: 3.98 µM [inhibitor, partial curve, poor fit]"
O=C1CC(NN2CCCCC2)C(=O)N1c1ccccc1 (stereo unspecified),,"inconclusive: 28.2 µM [inhibitor, single point]"
c1c2c(cc3sc(N4CCCCC4)nc13)OCO2,,"inconclusive: 15.8 µM [inhibitor, partial curve]"
C=CCOc1cc(C)nc(-c2ccccc2O)n1,,"inconclusive: 14.1 µM [inhibitor, partial curve, poor fit]"
CCOCCCNC(=O)c1cc2c(=O)[nH]c3ccccc3c2n1C,,"inconclusive: 39.8 µM [inhibitor, single point]"
O=C(CCc1ccc(Oc2cc([N+](=O)[O-])cc([N+](=O)[O-])c2)cc1)Nc1cccc(Cl)c1,inactive: 2.5%,
Cc1ccc(N=Cc2nc(-c3ccc(C)cc3)oc2O)cc1,,"inconclusive: 2 µM [inhibitor, full curve]"
CCOc1ccc(CNC(=O)C2CCN(c3nn4c(=O)cc(C)nc4s3)CC2)cc1,,"inconclusive: 14.1 µM [inhibitor, partial curve]"
COc1ccc(Cc2nnc(SCC(=O)N3CCc4ccccc4C3)o2)cc1,,"inconclusive: 15.8 µM [inhibitor, partial curve]"

SMILES,"activity, negative = inhibition",Potency
CSc1nc(N2CCOCC2)c2c(c1C#N)CC(C)(C)OC2,inactive: -1.42%,
CN(C)c1ccc(NC(=O)CSCc2nc3c(nnn3Cc3ccc(F)cc3)c(=O)[nH]2)cc1,,"inconclusive: 39.8 µM [inhibitor, single point]"
COc1ccc(NC(=O)CSc2c(C)n[nH]c2C)cc1,inactive: 6.57%,
CC(C)=CCc1c2c(c3occ(-c4ccc(O)c(O)c4)c(=O)c3c1O)C=CC(C)(C)O2,,"inconclusive: 12.6 µM [inhibitor, partial curve]"
O=C(Nc1ccc2c(c1)ncn2C1CCCCC1)c1ccco1,,"inconclusive: 15.8 µM [inhibitor, partial curve]"
COc1ccc(N(C(=O)COc2ccccc2OC)S(=O)(=O)c2ccc(Cl)cc2)cc1,,"inconclusive: 12.6 µM [inhibitor, partial curve]"
Cc1ccc(Cn2c(SCc3cccnc3)nc3c2c(=O)n(C)c(=O)n3C)cc1,inactive: -19.1%,
COc1ccc(Nc2nc(-c3sc(N)nc3C)cs2)cc1,,active: 8.91 µM
CCOC(=O)c1c(CC(C)C)csc1/N=C/C1C(=O)CCCC1=O,,"inconclusive: 35.5 µM [inhibitor, single point]"
COCCCNc1nc(N)c([N+](=O)[O-])c(Nc2ccccc2OC)n1,,"inconclusive: 20 µM [inhibitor, partial curve]"
CC(C)c1nc(=S)n(-c2ccccc2)[nH]1,inactive: -8.97%,
COc1ccc(NC(=O)Nc2cccc(-c3cn4cccnc4n3)c2)cc1,,"inconclusive: 2.24 µM [inhibitor, full curve]"
Cc1ccc(NC(=O)Cn2c(O)c(N=NC(=O)c3cc([N+](=O)[O-])ccc3O)c3ccccc32)cc1,,"inconclusive: 12.6 µM [inhibitor, partial curve]"
COc1ccc(/C=C2\CCc3ccccc3C2=O)c(OC)c1OC,,"inconclusive: 12.6 µM [inhibitor, partial curve]"
CC(C)Oc1ccc(CNCCC2(C(C)C)CCOC(C)(C)C2)cc1 (stereo unspecified),,"inconclusive: 28.2 µM [inhibitor, partial curve, poor fit]"
NC(=O)c1nn(-c2ccccc2)c(=O)cc1O,inactive: -13%,
COCCCn1c(CCC(=O)O)ccc1-c1cccs1,,"inconclusive: 14.1 µM [inhibitor, partial curve, poor fit]"
Oc1cccc(/C=N/c2c(-c3ccco3)nc3ccccn23)c1,,"inconclusive: 35.5 µM [inhibitor, single point]"
O=C(CSc1ccc(-c2cccc([N+](=O)[O-])c2)nn1)N1CCCCC1,,"inconclusive: 14.1 µM [inhibitor, single point]"
NC(=S)Nc1cccc2cccnc12,inactive: -5.8%,
COCCNC(=O)CSCc1cc(C)cc(C)c1,inactive: 0.227%,
O=C(CS(=O)(=O)Cc1ccccc1)Nc1ccc2c(c1)OCO2,,"inconclusive: 28.2 µM [inhibitor, partial curve, poor fit]"
CCCCN(CCCNC(=O)CN1C(=O)COc2ccccc21)c1ccccc1,,"inconclusive: 39.8 µM [inhibitor, single point]"
CCOC(=O)c1cnc(-c2ccccc2)nc1N1CCOCC1,inactive: -9.39%,

SMILES,"activity, negative = inhibition",Potency
CCOC(=O)CNC(=O)CSc1nc(-c2ccc(OC)cc2)ns1,inactive: -2.89%,
CCCCSC1=N/C(=C/c2ccsc2)C(=O)N1c1ccccc1,,"inconclusive: 39.8 µM [inhibitor, single point]"
CCOc1cc2c(cc1OCC)C(c1ccccc1OC)OC(=O)C2 (stereo unspecified),inactive: -18.2%,
O=C(O)/C=C/C(=O)Nc1ccc(S(=O)(=O)N2CCCC2)cc1,inactive: -5.38%,
Cc1ccc(-c2nc3ncccc3o2)cc1NC(=O)c1ccccc1Br,,"inconclusive: 20 µM [inhibitor, single point]"
COc1cccc(OCCOCCOc2ccc(C)cc2[N+](=O)[O-])c1,,"inconclusive: 14.1 µM [inhibitor, single point]"
O=C(Nc1nnc(C2CC2)s1)c1ccccn1,,"inconclusive: 11.2 µM [inhibitor, partial curve]"
CC(=O)OC[C@@H]1O[C@@H](O/N=C2/C[C@@H](O)[C@@H](O)[C@@H]3[C@@H]4C(=O)N(C(C)(C)C)C(=O)[C@H]4CC[C@@H]23)[C@H](OC(C)=O)[C@H](OC(C)=O)[C@@H]1OC(C)=O,inactive: -11% [at 11.5 µM],
CCOc1ccc(NC(=O)Nc2cc(-c3ccccc3)sc2C(=O)OC)cc1,,"inconclusive: 8.91 µM [inhibitor, partial curve]"
CCN1CCN(c2cc(C(C)(C)C)nc3c(-c4ccccc4)c(C)nn23)CC1,,"inconclusive: 28.2 µM [inhibitor, partial curve]"
O=C(O)CCc1ccc(-c2cccs2)n1Cc1ccco1,,"inconclusive: 10 µM [inhibitor, partial curve]"
N[C@@H](Cc1ccccc1)c1nnc(SCc2ccccc2Cl)o1,inactive: -17.9%,
CCCn1c(C)nc2c(NCC(C)(C)CN(C)C)nc(C)nc21,inactive: -3.44%,
CSc1ccc(/C=N\NC(=O)COc2ccc(Cl)cc2Br)cc1,,"inconclusive: 1.12 µM [inhibitor, full curve]"
O=C1c2ccccc2C(Nc2ccc3c(c2)OCO3)N1Cc1ccco1 (stereo unspecified),,"inconclusive: 15.8 µM [inhibitor, single point]"
CCc1nnc(NC(=O)CSc2nccn2-c2cccc(C)c2C)s1,inactive: -7.78%,
CCCCN1C(=O)C2Cc3c([nH]c4ccccc34)CN2C1=S (stereo unspecified),,"inconclusive: 31.6 µM [inhibitor, partial curve]"
O=C(NCCCN1CCCC1)c1ccc2c(Cl)c3c(nc2c1)CCCC3,inactive: -6.83%,
CCOc1ccc(C(CC(=O)Nc2cc(C)c(Cl)cc2OC)N2Cc3ccccc3C2=O)cc1OC (stereo unspecified),inactive: -1.26%,
C=CCn1c(-c2cccc(OCC)c2)n[nH]c1=S,,"inconclusive: 17.8 µM [inhibitor, partial curve]"
O=c1c2sccc2nc(SCc2cc(=O)n3cc(Cl)ccc3n2)n1Cc1ccccn1,,"inconclusive: 31.6 µM [inhibitor, single point]"
CN([C@@H](Cc1ccc(OS(=O)(=O)c2cccc3cnccc23)cc1)C(=O)N1CCN(c2ccccc2)CC1)S(=O)(=O)c1cccc2cnccc12,,"inactive and inconclusive: 39.8 µM [inhibitor, single point]"
COc1ccccc1N1CCN(S(=O)(=O)c2ccc3c4c(cccc24)C(=O)N3)CC1,,"inconclusive: 28.2 µM [inhibitor, single point]"
